# The campaign covered roughly 150,000 compounds. About 540 (0.36%) showed an effect of 50% or more. The list shows a part of the results.
# Test system: Plasmodium falciparum
# Experiment: Primary screen in NF54 nanoGlo assay, in single point, at 2uM, 72h; a lower Z score goes with more inhibition
# Assay type: functional, Erythrocyte
# Details: timepoint 72 hour
Structure (SMILES),% Inhibition,Z score
O=C(c1ccc(S(=O)(=O)NC2CC2)o1)N1CCN(c2ccccc2F)CC1,-11%,1.55
Cc1nn(C)c(Cl)c1S(=O)(=O)N1CCn2cncc2C1,-3%,0.31
Cn1cc(-c2ccc3c(n2)N(C(=O)CCc2c[nH]c4ccccc24)CCC3)cn1,12%,-1.36
O=C(Cn1ncc(=O)c2ccccc21)N1CCC(C(=O)N2CCCCCC2)CC1,2%,-0.35
COc1cc2ccccc2cc1C(=O)Nc1nnc(-c2ccco2)o1,-2%,0.41
C/C=C/CC(=O)N1CCC[C@H](c2cc(N3CCOCC3)ncn2)C1,-14%,1.41
Cc1cnccc1CN(C)C(=O)c1ccc([C@H]2CCCNC2)cc1,13%,-1.83
CCn1nc(CN2CCC[C@H](NC(=O)c3cc(Cl)ccc3OC)C2)c2c1CCOC2,-5%,0.83
Cc1oc(-c2cnn(C)c2)nc1C(=O)NC1(CO)CC1,1%,-0.26
CCN1CCN(C(=O)c2cc(-c3ccc(OC)c(S(=O)(=O)N4CCCCC4)c3)[nH]n2)CC1,-10%,1.58
CS(=O)(=O)CC(=O)N1CCNC(=O)[C@@H]1c1ccc(C(F)(F)F)cc1,-12%,1.05
CC(=O)N1CC(OCC(=O)Nc2sc(-c3ccccc3)cc2C#N)C1,-12%,1.13
COc1ccc(NC(=O)Nc2cccc(Cl)c2)cc1N1CCCN(Cc2cccc(Cl)c2)C1=O,-10%,1.41
CCN(CC(=O)Nc1ccc(Br)cc1)C(=O)CCNC(C)=O,-4%,0.55
Cc1cc(C)n(-c2ccc(-c3noc(C(C)(O)C(C)c4ccccc4)n3)cn2)n1 (stereo unspecified),-10%,1.45
O=C(c1nn(-c2cccc(F)c2)c2c1CCCC2)N1CCn2ncnc2C1,-7%,1.11
NC1(c2noc(-c3ccc(-c4nc(C5CC5)n[nH]4)cc3)n2)CCCC1,10%,-1.86
Cc1cc(N2CCC[C@H](NC(=O)c3ncsc3C(F)(F)F)C2)n(C)n1,-5%,0.56
O=c1ccc2c(N3CCOCC3)ncnc2n1CCCO,-14%,2.38
COCC[C@H](C)NS(=O)(=O)c1cc(Cl)c(N)c(Cl)c1,7%,-0.74
COc1cn(C)c(C(=O)N2CCN(S(=O)(=O)c3ccc(F)cc3)CC2)cc1=O,-9%,0.93
COCCN1C(=O)C2C(C(O)c3ccc(Cl)cc3)NC3(C(=O)Nc4ccccc43)C2C1=O (stereo unspecified),2%,-0.23
CC(=O)N[C@@H]1C[C@H](CC(C)C)O[C@H](c2ccc(Cl)cc2)C1,19%,-2.13
CCCN1CCN(CCCNC(=O)c2c(N3CCCC3=O)c3cc(F)ccc3n2CC)CC1,-4%,0.59
Cn1cc(-c2csc(-c3ccncc3)n2)cn1,-11%,1.89
Cc1csc(CCNC(=O)Nc2ccnn2C[C@@H]2CC=CCC2)n1,-13%,1.69
O=C(O)C(Cc1cccc2ccccc12)NC(=O)[C@@H]1CCCO1 (stereo partly specified),-17%,3.12

Structure (SMILES),% Inhibition,Z score
Cc1nc2ccc(Cl)cn2c1NC(=O)C1CCOCC1,-18%,1.63
Cc1cc(N2CCC3(NC(=O)Cn4ncn(C)c4=O)CCCC23)nc(CO)n1 (stereo unspecified),-5%,1.02
Cc1ccc(CCC(=O)N2CC(OCC(F)(F)F)C2)cc1F,-3%,0.44
CC1(O)CCN(c2cncc(OCC3CCCC3)n2)CC1,-4%,0.82
COc1ccc2c(c1)CCC[C@@]2(O)CNC(=O)Nc1cccs1,-11%,1.36
O=C(NC1(CC2CC2)CCN(Cc2ccccn2)CC1)c1ccccc1,-3%,0.6
O=C(Cc1cccnc1)N1CC[C@H](Oc2cccnn2)C1,-5%,0.61
Cc1cc(Nc2ccc(C)c(Cl)c2)c2cccc(C)c2n1,23%,-2.05
CCS(=O)(=O)N1C[C@@H]2CN(Cc3ccc(C)o3)C[C@]2(c2nc(C)no2)C1,-11%,1.42
CCN(CCOc1cccc(Cl)c1)C(=O)Cn1nc(C)cc1N,3%,-0.25
CS(=O)(=O)N1CCN(C(=O)NC[C@@H](c2ccsc2)n2cccn2)C1=O,-11%,2.16
COC1CCCC(OC(=O)c2ccccc2-c2cncnc2)C1 (stereo unspecified),-4%,0.62
O=c1[nH]nc(-c2ccc(Br)cc2)nc1Cc1ccc(Br)cc1,-3%,0.53
N#Cc1cc(Br)ccc1N1CCC[C@H](Cn2cncn2)C1,-2%,0.22
Cc1c(C2CC2)n[nH]c1NC(=O)Cc1ccccc1OC(F)F,-7%,0.91
Cn1c(=O)[nH]c2nnc(-c3ccc4c(c3)OCO4)nc2c1=O,17%,-2.25
NC(=O)c1nccnc1C(=O)N1CCc2c(Cl)cccc2C1,4%,-0.8
Cc1cc(O[C@H]2CCCN(C(=O)NCc3ccc4c(c3)OCO4)C2)nc(C)n1,2%,-0.26
FC(F)(F)c1cc(-c2ccco2)nc2cc(-c3ccc(Cl)c(Cl)c3)nn12,-12%,1.58
Cc1cc(N2CCCCCC2)n2nc(CN3CCN(C)CC3)nc2n1,-10%,1.26
OCc1nc([C@H]2CCOC2)nn1-c1cccc2cccnc12,7%,-0.67
CC1CCN(C(=O)c2nc(-c3cnccn3)no2)CC1,-15%,2.2
CC(C)(CN[C@H]1CCCS(=O)(=O)C1)c1cccc(F)c1,-5%,0.49
Cc1cccc(C(C)NCC(O)CN(C)C)c1 (stereo unspecified),-1%,0.09
CCc1nc2c(c(C(=O)N3CCN(c4ncccn4)CC3)n1)OCCO2,-9%,1.21
O=C(CC1CCCC1)Nc1ccccc1C(=O)NC1CC1,-7%,0.61

# From ChEMBL document CHEMBL4888484, “Replenishing the malaria drug discovery pipeline: Screening and hit evaluation of the MMV Hit Generation Library 1 (HGL1) against asexual blood stage Plasmodium falciparum ,using a nano luciferase reporter read-out” (2022)
